Reference: PubChem BioAssay AID588342 (National Center for Advancing Translational Sciences (NCATS), 2011)
“And” between values parts separate entries of the source, which are not always exact repeats. Identical values can stand only once. About 25,000 (6.9%) of roughly 360,000 compounds were called active. Inconclusive results, whose numbers are uncertain, are shown with a selection of clear calls. Calls follow the shape of the dose curve; as a rule, active = well fitted inhibition curve with a large enough effect; inconclusive = small, poorly fitted or top-dose-only effect; inactive = flat fitted curve, though single readings scatter. Potencies beside an inconclusive call are fits to weak or partial responses and may not hold up.

molecular target: Luciferin 4-monooxygenase (Photinus pyralis) (UniProt P08659); assay: qHTS profiling assay for firefly luciferase inhibitor/activator using purifed enzyme and Km concentrations of substrates (counterscreen for miR-21 project); conditions: purified FLuc, luminescence inhibition; series mostly up to 57.5 µM; activity change, negative = inhibition: at the top concentration; also: nearly all actives have a fitted effect of over 55% in size;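 as to activity change, negative = inhibition: plate controls were vehicle for no effect and reference inhibitor for full effect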
Chain of UniProt P08659 (P08659 whole entry, looked up): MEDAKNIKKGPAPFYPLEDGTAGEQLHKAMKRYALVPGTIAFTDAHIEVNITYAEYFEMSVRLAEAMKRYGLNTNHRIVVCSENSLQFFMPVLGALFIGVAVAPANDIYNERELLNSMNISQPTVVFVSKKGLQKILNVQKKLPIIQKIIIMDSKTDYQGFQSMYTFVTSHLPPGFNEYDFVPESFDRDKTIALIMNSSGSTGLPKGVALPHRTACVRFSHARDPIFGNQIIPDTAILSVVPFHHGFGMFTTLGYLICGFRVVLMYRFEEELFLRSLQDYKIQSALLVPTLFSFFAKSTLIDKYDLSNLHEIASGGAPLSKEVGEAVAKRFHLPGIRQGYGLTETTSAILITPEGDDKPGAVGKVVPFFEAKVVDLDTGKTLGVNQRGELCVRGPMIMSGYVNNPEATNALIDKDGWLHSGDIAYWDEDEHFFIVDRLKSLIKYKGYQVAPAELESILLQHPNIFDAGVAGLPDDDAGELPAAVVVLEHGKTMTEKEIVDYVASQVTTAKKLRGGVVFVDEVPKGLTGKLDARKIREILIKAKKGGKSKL
Method in brief: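 Purified P. pyralis luciferase, 10 nM final, with Km-level 10 uM D-luciferin and 10 uM ATP in 50 mM Tris acetate pH 7.5, 10 mM Mg acetate, 0.01% Tween-20, 0.05% BSA; 6-point qHTS titration about 60 µM downward; luminescence read.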
Potency is read from the fitted curve at half-maximal effect; tags tell the direction and shape of the fitted curve.

Structure (SMILES)	activity change, negative = inhibition	Potency
CCOC(=O)c1c(Oc2ccc(C(C)=O)cc2)nnc(-c2ccccc2)c1-c1ccccc1	inactive: 5.14%	–
Cc1ccc(-c2nc(=S)c3c(n2Cc2cccnc2)CC(C)(C)OC3)cc1	inactive: -1.74%	–
CSCCC(NC(=O)c1ccc(C(C)(C)C)cc1)C(=O)OCC(=O)N1CCCC1=O (stereo not drawn)	–	active: 21.3 µM
Cc1ccc(OCCCSc2nc(-c3ccc(C(C)(C)C)cc3)nc3cc(=O)[nH]n23)cc1C	–	inconclusive: 26.9 µM [inhibitor, partial curve, poor fit]
CCCOc1ccc(C(=O)NCC(c2cccs2)N(C)C)cc1 (stereo not drawn)	–	inconclusive: 30.1 µM [inhibitor, partial curve, poor fit]
COc1ccc(C(=O)Nc2cc(C(C)=O)c(/C=C/N(C)C)oc2=O)cc1	–	inconclusive: 6.75 µM [inhibitor, full curve]
O=C(N=Nc1c(O)[nH]c2ccc(Br)cc12)c1cc(-c2cccc3ccccc23)n[nH]1	–	inconclusive: 16.9 µM [inhibitor, partial curve]
O=C1C2C3C=CC(C4CC34)C2C(=O)N1/N=C/c1ccc(-c2ccccc2[N+](=O)[O-])o1 (stereo not drawn)	–	active: 10.7 µM
CCOC(=O)c1[nH]c2ccc(OC)cc2c1NC(=O)c1ccccc1C(=O)O	–	inconclusive: 16.9 µM [inhibitor, partial curve, poor fit]
Cc1ccc(OCC(=O)OCc2cc(=O)n3nc(C4CC4)sc3n2)cc1	inactive: -5.96%	–
Cc1cccc(COc2ccccc2/C=N/Nc2ccc([N+](=O)[O-])cc2)c1	inactive: -1.93%	–
Cc1cccn2c(=O)c3cc(C(=O)Nc4ccc(Cl)c(Cl)c4)sc3nc12	inactive: 2.82%	–
CC1Cc2ccccc2N1C1=CC(=O)CCC1 (stereo not drawn)	inactive: 2.09%	–
COCCNC(=O)/C(C#N)=C/C(C)=C/c1ccccc1	–	inconclusive: 23.9 µM [inhibitor, single point]
CCc1nnc(NC(=O)CCC(=O)N2CCN(c3cccc(Cl)c3)CC2)s1	inactive: 2.17%	–
O=[N+]([O-])c1cccc(/C=N/NC2=NCCCCC2)c1	–	inconclusive: 37.9 µM [inhibitor, partial curve, poor fit]
Cn1c(C(=O)O)cc2cc(Oc3ccccc3)ccc21	–	inconclusive: 19 µM [inhibitor, partial curve, poor fit]
O=C(CN1CCN(Cc2ccccc2Cl)C1=O)NC1CCCCCC1	–	inconclusive: 26.9 µM [inhibitor, partial curve, poor fit]
C(=N\N1CCOCC1)/c1nc(-c2ccccc2)n2ccccc12	inactive: -3.8%	–
Cc1cccn2c(=O)c3cc(C(=O)NC4CCCCC4)c(=N)n(Cc4ccccc4)c3nc12	–	inconclusive: 15.1 µM [inhibitor, partial curve]
COc1ccc(Nc2ncnc3c2cnn3-c2ccccc2)cc1OC	inactive: 4.33%	–
Cc1ccc(NC(=O)CSc2n[nH]c(-c3cccnc3)n2)cc1Cl	–	inconclusive: 30.1 µM [inhibitor, partial curve, poor fit]
CCc1ccccc1NC(=O)CC1Sc2ccc(C(F)(F)F)cc2NC1=O (stereo not drawn)	inactive: 5.4%	–
Cn1c(Oc2ccc(Cl)cc2)nc2c1c(=O)n(Cc1ccc(F)cc1)c(=O)n2C	inactive: 3.33%	–
Cc1ccc(-n2nc(C)c(Sc3ccccc3[N+](=O)[O-])c2N)cc1	–	inconclusive: 7.57 µM [inhibitor, partial curve, poor fit]

Structure (SMILES)	activity change, negative = inhibition	Potency
O=C(CCSCCc1ccccn1)Nc1c(F)cc(F)cc1Br	inactive: 9.49%	–
O=C(O)/C=C/C(=O)Nc1ccccc1-c1ccccc1	inactive: 0.0221%	–
O=C(Nc1ccc(Cl)cc1)N1CCC(c2ccccc2)C1 (stereo not drawn)	–	active: 2.69 µM and active: 3.79 µM
CC(C)NC(=O)c1ccc(COc2ccc(C(C)(C)C)cc2)o1	–	inconclusive: 23.9 µM [inhibitor, partial curve]
CC(=O)c1sc2nc(SCC(=O)N3CCCCC3)[nH]c(=O)c2c1C	–	inconclusive: 23.9 µM [inhibitor, single point]
CCOc1ccc2nc(N/C(N)=N/S(C)(=O)=O)nc(C)c2c1	–	inconclusive: 15.1 µM [inhibitor, partial curve]
Oc1ccc(/C=N/Nc2nc(N3CCCC3)nc(N3CCCC3)n2)cc1O	–	inconclusive: 37.9 µM [inhibitor, single point]
Cc1cc(-c2ccc(S(=O)(=O)Nc3ccc(Cl)cc3C)cc2)on1	–	inconclusive: 37.9 µM [inhibitor, partial curve, poor fit]
Cc1[nH]c2ccccc2c1/C=N/NC(=O)c1cccc(F)c1	–	inconclusive: 26.9 µM [inhibitor, partial curve]
O=C(CC(c1ccccc1)c1ccccc1)Nc1ccc2c(c1)OCCO2	inactive: -17.3%	–
COc1ccc(/C=N/NC(=O)c2ccc[nH]2)cc1	–	active: 5.36 µM
c1ccc(Cn2nnnc2CN2CCCC2)cc1	inactive: -3.38%	–
O=C1C(c2ccnc3ccccc23)=C(O)c2ccccc21	–	active: 0.107 µM
COc1cccc(/C=N/NC(=O)c2cc3cc([N+](=O)[O-])ccc3s2)c1O	–	inconclusive: 15.1 µM [inhibitor, partial curve, poor fit]
O=C1C(=C(O)c2ccccc2)C(=O)c2ccccc21	–	inconclusive: 19 µM [inhibitor, single point]
COc1ccccc1CNc1nccn(-c2ccccc2)c1=O	–	inconclusive: 30.1 µM [inhibitor, partial curve, poor fit]
O=C1C2=C(Nc3ccccc3SC2c2ccco2)c2ccccc21 (stereo not drawn)	–	inconclusive: 37.9 µM [inhibitor, partial curve, poor fit]
CSc1nnc(C)c(=O)n1COC(=O)COc1ccc(Cl)cc1	inactive: 4.76%	–
O=C(N/N=C/C(Cl)=C\c1ccccc1)c1cnccn1	–	active: 10.7 µM
COc1ccc(NC(=O)c2cnc(N3CCCCC3)c3ccccc23)cc1Cl	–	inconclusive: 10.7 µM [inhibitor, partial curve]
Nc1ccc2nc(CCc3ccccc3)[nH]c2c1	–	inconclusive: 26.9 µM [inhibitor, single point]
CCC(C)NC(=O)c1sc2nc(C)c(C(=O)Nc3ccc(C)cc3C)c(-c3ccccc3Cl)c2c1N (stereo not drawn)	inactive: -15.1%	–
CCN(CC)c1ccc(-c2nc(-c3ccco3)no2)cc1[N+](=O)[O-]	–	inconclusive: 16.9 µM [inhibitor, partial curve, poor fit]
COc1ccc(-c2ccc(CCC(=O)O)n2CC(=O)Nc2cccc(OC)c2)cc1	–	inconclusive: 26.9 µM [inhibitor, partial curve, poor fit]
Cc1ccc2[nH]cc(CCNC(=O)c3ccc4c(c3)OCO4)c2c1	–	inconclusive: 19 µM [inhibitor, partial curve]

Structure (SMILES)	activity change, negative = inhibition	Potency
O=C(O)c1ccc(/C=C2\COc3ccccc3C2=O)cc1	–	active: 19 µM
O=C(O)c1ccc(CSc2nnc(-c3ccc(Cl)cc3)o2)cc1	–	active: 16.9 µM
CC(OC(=O)C1CCN(c2ccc(C(F)(F)F)cn2)CC1)C(=O)Nc1ccc(S(N)(=O)=O)cc1 (stereo not drawn)	–	inconclusive: 37.9 µM [inhibitor, partial curve, poor fit]
O=C(COC(=O)c1ccccc1-n1cnnn1)c1ccc(Br)cc1	–	active: 5.36 µM
CN(C)CCN(C(=O)c1ccc2c(c1)OCCO2)c1nc2ccc(Cl)cc2s1	–	inconclusive: 37.9 µM [inhibitor, single point]
Cc1cc(C)c(C(=O)COC(=O)c2cccc(S(=O)(=O)NCc3ccccc3)c2)cc1C	–	inconclusive: 9.53 µM [inhibitor, partial curve]
Cc1ccsc1/C=N/Nc1ncc(Cl)cc1Cl	–	active: 2.69 µM
CCOC(=O)C1(Cc2ccc(Cl)cc2)CCN(Cc2cn(CC)nc2C)CC1	inactive: -0.2%	–
CC(=O)Nc1ccc(NC(=O)CCS(=O)(=O)c2ccc3c(c2)CC(=O)N3C)cc1	inactive: -4.52%	–
COc1ccccc1CNC(=O)c1oc2ccc3c(c2c1C)C(=O)CC(C)(C)O3	–	active: 5.36 µM
Cc1ccc(NC(=O)CSc2ncc3ccccn23)cc1C	–	inconclusive: 37.9 µM [inhibitor, partial curve, poor fit]
COc1cccc(C(=O)O/N=C(\N)c2ccncc2)c1OC	–	inconclusive: 30.1 µM [inhibitor, single point]
CCN1CCN(C(=O)c2cc3c(s2)-c2ccccc2S(=O)(=O)C3)CC1	inactive: 2.96%	–
Nc1ccc2nc3c(=O)[nH]c(=S)[nH]c3nc2c1	–	inconclusive: 37.9 µM [inhibitor, single point]
Cc1nnc(SCc2cccc(CSc3nnc(C)s3)c2)s1	–	inconclusive: 19 µM [inhibitor, partial curve]
O=C(NC(=S)Nc1ncc(Br)cc1Br)c1cncc(Br)c1	–	inconclusive: 21.3 µM [inhibitor, single point]
Cc1ccc(-c2ccc(/C=C/C(=O)c3ccccc3)o2)cc1	–	inconclusive: 13.5 µM [inhibitor, partial curve]
COc1ccccc1C(=O)OCc1cc(=O)n2nc(C(C)C)sc2n1	inactive: -16.2%	–
O=c1c2ccccc2nc(COc2ccccc2)n1/N=C/c1ccco1	–	inconclusive: 26.9 µM [inhibitor, single point]
c1ccc2nc(-c3ccncc3)ccc2c1	–	inconclusive: 19 µM [inhibitor, partial curve]
COc1ccc(/C=C/C(=O)Nc2sc(Cc3ccccc3)c(C)c2C(N)=O)cc1	–	inconclusive: 16.9 µM [inhibitor, partial curve]
CCOC(=O)N1CCN(c2cc(=O)n(-c3ccc(C)cc3)c(=O)[nH]2)CC1	inactive: 2.01%	–
O=Cc1ccccc1OCc1ccc2c(c1)OCO2	–	active: 1.35 µM
